# From the supplement of paper PMC8728848
# Some of the results follow.
# B1: EEA (Euonymus europaeus) (protein)
# chain: MASTIIATGPTYRVYCRAAPNYNMIVGKGVAFLAPIDETNELQYWYKDDTYSYIKDEAGLPAFSLVNKATGLTLKHSNHHPVPVKLVTYNPNVVDESVLWSQADDRGDGYSAIRSLTNPASHLEAAPLNDWSYNGAIIMGGVWIDAYNQQWKIEPHTG
# Tests used:
# Assay in all cases: glycan array binding signal (z-score within array); higher = stronger binding
# Conditions in all cases: glycan notation: IUPAC condensed, linker removed
# [1] = biological target: Neu5Ac(a2-3)Gal(b1-3)[Neu5Ac(a2-3)Gal(b1-4)]GlcNAc
# In short: (§1)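 Negative Z-scores can be read as non-binding. The Z-score is calculated within each array and then averaged across arrays of one protein sequence at different concentrations or buffers and across linkers. Arrays, 3228 in all, were curated from the Consortium for Functional Glycomics database and kept only where the protein sequence was available.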
# [2] = biological target: Neu5Ac(a2-3)Gal(b1-3)[Neu5Ac(a2-6)]GalNAc
# In short: as §1
# [3] = biological target: Neu5Ac(a2-3)Gal(b1-3)[Neu5Ac(a2-6)]GlcNAc(b1-3)[Fuc(a1-3)[Gal(b1-4)]GlcNAc(b1-6)]Gal(b1-4)Glc
# In short: as §1
# [4] = biological target: Neu5Ac(a2-3)Gal(b1-3)]Neu5Ac(a2-3)Gal(b1-4)]GlcNAc
# In short: as §1
# Neu5Ac(a2-3)Gal(b1-4)Glc = biological target: Neu5Ac(a2-3)Gal(b1-4)Glc
# In short: as §1
# [5] = biological target: Neu5Ac(a2-3)Gal(b1-4)GlcNAc
# In short: as §1
# [6] = biological target: Neu5Ac(a2-3)Gal(b1-4)GlcNAc(b1-2)Man
# In short: as §1
# [7] = biological target: Neu5Ac(a2-3)Gal(b1-4)GlcNAc(b1-2)Man(a1-3)[GlcNAc(b1-2)Man(b1-4)GlcNAc(b1-2)Man(a1-6)]Man(b1-4)GlcNAc(b1-4)GlcNAc
# In short: as §1
# [8] = biological target: Neu5Ac(a2-3)Gal(b1-4)GlcNAc(b1-2)Man(a1-3)[GlcNAc(b1-4)][Neu5Ac(a2-3)Gal(b1-4)GlcNAc(b1-2)Man(a1-6)]Man(b1-4)GlcNAc(b1-4)GlcNAc
# In short: as §1
# [9] = biological target: Neu5Ac(a2-3)Gal(b1-4)GlcNAc(b1-2)Man(a1-3)[Neu5Ac(a2-3)Gal(b1-4)GlcNAc(b1-2)Man(a1-6)]Man(b1-4)GlcNAc(b1-4)GlcNAc
# In short: as §1
# [10] = biological target: Neu5Ac(a2-3)Gal(b1-4)GlcNAc(b1-2)Man(a1-3)[Neu5Ac(a2-3)Gal(b1-4)GlcNAc(b1-2)Man(a1-6)]Man(b1-4)GlcNAc(b1-4)[Fuc(a1-6)]GlcNAc
# In short: as §1
# [11] = biological target: Neu5Ac(a2-3)Gal(b1-4)GlcNAc(b1-2)Man(a1-3)[Neu5Ac(a2-6)Gal(b1-4)GlcNAc(b1-2)Man(a1-6)]Man(b1-4)GlcNAc(b1-4)GlcNAc
# In short: as §1
# [12] = biological target: Neu5Ac(a2-3)Gal(b1-4)GlcNAc(b1-2)[Neu5Ac(a2-3)Gal(b1-4)GlcNAc(b1-4)]Man(a1-3)[GlcNAc(b1-4)][Neu5Ac(a2-3)Gal(b1-4)GlcNAc(b1-2)[Neu5Ac(a2-3)Gal(b1-4)GlcNAc(b1-6)]Man(a1-6)]Man(b1-4)GlcNAc(b1-4)GlcNAc
# In short: as §1
# [13] = biological target: Neu5Ac(a2-3)Gal(b1-4)GlcNAc(b1-2)[Neu5Ac(a2-3)Gal(b1-4)GlcNAc(b1-4)]Man(a1-3)[GlcNAc(b1-4)][Neu5Ac(a2-3)Gal(b1-4)GlcNAc(b1-4)Man(a1-6)]Man(b1-4)GlcNAc(b1-4)GlcNAc
# In short: as §1
# [14] = biological target: Neu5Ac(a2-3)Gal(b1-4)GlcNAc(b1-2)[Neu5Ac(a2-3)Gal(b1-4)GlcNAc(b1-6)]Man(a1-6)[Neu5Ac(a2-3)Gal(b1-4)GlcNAc(b1-2)Man(a1-3)]Man(b1-4)GlcNAc(b1-4)GlcNAc
# In short: as §1
# [15] = biological target: Neu5Ac(a2-3)Gal(b1-4)GlcNAc(b1-2)[Neu5Ac(a2-3)Gal(b1-4)GlcNAc(b1-6)]Man(a1-6)[Neu5Ac(a2-3)Gal(b1-4)GlcNAc(b1-2)Man(a1-3)][GlcNAc(b1-4)]Man(b1-4)GlcNAc(b1-4)GlcNAc
# In short: as §1
# [16] = biological target: Neu5Ac(a2-3)Gal(b1-4)GlcNAc(b1-3)Gal
# In short: as §1
# [17] = biological target: Neu5Ac(a2-3)Gal(b1-4)GlcNAc(b1-3)Gal(b1-3)GlcNAc
# In short: as §1
# [18] = biological target: Neu5Ac(a2-3)Gal(b1-4)GlcNAc(b1-3)Gal(b1-4)GlcNAc
# In short: as §1
# [19] = biological target: Neu5Ac(a2-3)Gal(b1-4)GlcNAc(b1-3)Gal(b1-4)GlcNAc(b1-2)Man(a1-3)[Neu5Ac(a2-3)Gal(b1-4)GlcNAc(b1-3)Gal(b1-4)GlcNAc(b1-2)Man(a1-6)]Man(b1-4)GlcNAc(b1-4)GlcNAc
# In short: as §1
# [20] = biological target: Neu5Ac(a2-3)Gal(b1-4)GlcNAc(b1-3)Gal(b1-4)GlcNAc(b1-3)Gal(b1-4)GlcNAc
# In short: as §1
# [21] = biological target: Neu5Ac(a2-3)Gal(b1-4)GlcNAc(b1-3)Gal(b1-4)GlcNAc(b1-3)Gal(b1-4)GlcNAc(b1-2)Man(a1-3)[Neu5Ac(a2-3)Gal(b1-4)GlcNAc(b1-3)Gal(b1-4)GlcNAc(b1-3)Gal(b1-4)GlcNAc(b1-2)Man(a1-6)]GalNAc
# In short: as §1
# [22] = biological target: Neu5Ac(a2-3)Gal(b1-4)GlcNAc(b1-3)Gal(b1-4)GlcNAc(b1-3)GalNAc
# In short: as §1
# [23] = biological target: Neu5Ac(a2-3)Gal(b1-4)GlcNAc(b1-3)Gal(b1-4)GlcNAc(b1-3)[Neu5Ac(a2-3)Gal(b1-4)GlcNAc(b1-3)Gal(b1-4)GlcNAc(b1-6)]GalNAc
# In short: as §1
# [24] = biological target: Neu5Ac(a2-3)Gal(b1-4)GlcNAc(b1-3)Gal(b1-4)GlcNAc(b1-6)[Gal(b1-3)]GalNAc
# In short: as §1
# [25] = biological target: Neu5Ac(a2-3)Gal(b1-4)GlcNAc(b1-3)Gal(b1-4)[Fuc(a1-3)]GlcNAc
# In short: as §1
# [26] = biological target: Neu5Ac(a2-3)Gal(b1-4)GlcNAc(b1-3)GalNAc
# In short: as §1
# [27] = biological target: Neu5Ac(a2-3)Gal(b1-4)GlcNAc(b1-3)[Neu5Ac(a2-3)Gal(b1-4)GlcNAc(b1-6)]GalNAc
# In short: as §1
# [28] = biological target: Neu5Ac(a2-3)Gal(b1-4)GlcNAc(b1-6)GalNAc
# In short: as §1
# [29] = biological target: Neu5Ac(a2-3)Gal(b1-4)GlcNAc(b1-6)[Gal(b1-3)]GalNAc
# In short: as §1
# [30] = biological target: Neu5Ac(a2-3)Gal(b1-4)GlcNAc(b1-6)[Neu5Ac(a2-3)Gal(b1-3)]GalNAc
# In short: as §1
# [31] = biological target: Neu5Ac(a2-3)Gal(b1-4)GlcNAc6S
# In short: as §1
# [32] = biological target: Neu5Ac(a2-3)Gal(b1-4)[Fuc(a1-3)]GlcNAc
# In short: as §1
# [33] = biological target: Neu5Ac(a2-3)Gal(b1-4)[Fuc(a1-3)]GlcNAc(b1-2)Man
# In short: as §1
# [34] = biological target: Neu5Ac(a2-3)Gal(b1-4)[Fuc(a1-3)]GlcNAc(b1-3)Gal
# In short: as §1
# [35] = biological target: Neu5Ac(a2-3)Gal(b1-4)[Fuc(a1-3)]GlcNAc(b1-3)Gal(b1-4)GlcNAc
# In short: as §1
# [36] = biological target: Neu5Ac(a2-3)Gal(b1-4)[Fuc(a1-3)]GlcNAc(b1-3)Gal(b1-4)[Fuc(a1-3)]GlcNAc(b1-3)Gal(b1-4)[Fuc(a1-3)]GlcNAc
# In short: as §1
# [37] = biological target: Neu5Ac(a2-3)Gal(b1-4)[Fuc(a1-3)]GlcNAc(b1-3)GalNAc
# In short: as §1
# [38] = biological target: Neu5Ac(a2-3)Gal(b1-4)[Fuc(a1-3)]GlcNAc(b1-6)[Gal(b1-3)]GalNAc
# In short: as §1
# [39] = biological target: Neu5Ac(a2-3)Gal(b1-4)[Fuc(a1-3)]GlcNAc(b1-6)[Neu5Ac(a2-3)Gal(b1-3)]GalNAc
# In short: as §1
# [40] = biological target: Neu5Ac(a2-3)Gal(b1-4)[Fuc(a1-3)]GlcNAc6S
# In short: as §1
binder,measurement,setting,value
B1,glycan array binding signal (z-score),[1],-0.202
same,glycan array binding signal (z-score),[2],-0.2
same,glycan array binding signal (z-score),[3],-0.285
same,glycan array binding signal (z-score),[4],-0.268
same,glycan array binding signal (z-score),Neu5Ac(a2-3)Gal(b1-4)Glc,-0.124
same,glycan array binding signal (z-score),[5],-0.24
same,glycan array binding signal (z-score),[6],-0.18
same,glycan array binding signal (z-score),[7],-0.231
same,glycan array binding signal (z-score),[8],-0.266
same,glycan array binding signal (z-score),[9],-0.22
same,glycan array binding signal (z-score),[10],-0.166
same,glycan array binding signal (z-score),[11],-0.239
same,glycan array binding signal (z-score),[12],-0.275
same,glycan array binding signal (z-score),[13],-0.274
same,glycan array binding signal (z-score),[14],-0.137
same,glycan array binding signal (z-score),[15],-0.26
same,glycan array binding signal (z-score),[16],-0.197
same,glycan array binding signal (z-score),[17],-0.196
same,glycan array binding signal (z-score),[18],-0.188
same,glycan array binding signal (z-score),[19],0.67
same,glycan array binding signal (z-score),[20],-0.14
same,glycan array binding signal (z-score),[21],1.19
same,glycan array binding signal (z-score),[22],-0.231
same,glycan array binding signal (z-score),[23],0.105
same,glycan array binding signal (z-score),[24],0.122
same,glycan array binding signal (z-score),[25],-0.184
same,glycan array binding signal (z-score),[26],-0.202
same,glycan array binding signal (z-score),[27],-0.197
same,glycan array binding signal (z-score),[28],-0.205
same,glycan array binding signal (z-score),[29],-0.15
same,glycan array binding signal (z-score),[30],-0.219
same,glycan array binding signal (z-score),[31],-0.245
same,glycan array binding signal (z-score),[32],-0.193
same,glycan array binding signal (z-score),[33],-0.256
same,glycan array binding signal (z-score),[34],-0.126
same,glycan array binding signal (z-score),[35],-0.172
same,glycan array binding signal (z-score),[36],-0.207
same,glycan array binding signal (z-score),[37],-0.117
same,glycan array binding signal (z-score),[38],-0.043
same,glycan array binding signal (z-score),[39],-0.15
same,glycan array binding signal (z-score),[40],-0.196
